# Source: the BET-seq Pho4 binding data (Le et al. 2018)
# The other results are listed elsewhere or left out. These are noisy estimates, calculated here from bound and input reads.
# Target: T1, Pho4 (S. cerevisiae) (UniProt P07270)
# T1 sequence: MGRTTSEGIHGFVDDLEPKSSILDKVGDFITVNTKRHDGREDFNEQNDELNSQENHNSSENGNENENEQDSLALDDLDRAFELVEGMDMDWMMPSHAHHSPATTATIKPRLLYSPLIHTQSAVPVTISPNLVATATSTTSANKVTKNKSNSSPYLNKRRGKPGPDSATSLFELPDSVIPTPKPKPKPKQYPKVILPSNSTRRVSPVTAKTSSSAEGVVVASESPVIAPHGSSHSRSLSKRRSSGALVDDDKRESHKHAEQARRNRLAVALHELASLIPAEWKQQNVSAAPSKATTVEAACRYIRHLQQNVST
# Experiment: relative binding free energy (BET-seq); higher = weaker binding
# Conditions: reference: library average
row,Sequence,relative binding free energy
1,GTCGTCACGTGTGGAG,0.14 kcal/mol
2,GTGATCACGTGTATGA,0.15 kcal/mol
3,TTCGACACGTGGTATT,-0.05 kcal/mol
4,TACGTCACGTGGGTGT,-0.2 kcal/mol
5,GTAGGCACGTGTCTTT,0.01 kcal/mol
6,GGTCTCACGTGTAGTT,0.28 kcal/mol
7,TAGAGCACGTGAGGGG,-0.05 kcal/mol
8,GGCGTCACGTGTTTCG,0.21 kcal/mol
9,CGGGGCACGTGACGGG,-0.04 kcal/mol
10,AAGGTCACGTGAATGG,0.24 kcal/mol
11,GGTAACACGTGTTATG,0.02 kcal/mol
12,GTTGGCACGTGCGATG,-0.02 kcal/mol
13,GTATGCACGTGGACAG,-0.01 kcal/mol
14,TGAGTCACGTGCGTGG,-0.01 kcal/mol
15,TAGTTCACGTGATAAT,0.56 kcal/mol
16,TGTTACACGTGGGAGC,-0.01 kcal/mol
17,GTGTACACGTGCGCGT,-0.02 kcal/mol
18,AGAAACACGTGGTGAG,-0.06 kcal/mol
19,TTCTTCACGTGGTCTT,0.23 kcal/mol
20,AGGATCACGTGGTGGT,0.18 kcal/mol
21,TTATACACGTGGTCGG,-0.13 kcal/mol
22,AAGGACACGTGGGGTG,-0.12 kcal/mol
23,AAGTGCACGTGATGGG,0.1 kcal/mol
24,TCGAGCACGTGCTGGT,-0.06 kcal/mol
25,TTAGCCACGTGTGTTA,-0.08 kcal/mol

row,Sequence,relative binding free energy
1,TGAAGCACGTGCGGGA,-0.26 kcal/mol
2,TAGTACACGTGAGGGA,0.19 kcal/mol
3,CGGTTCACGTGAATGG,0.31 kcal/mol
4,GGCGTCACGTGTAATG,0.35 kcal/mol
5,GCGGTCACGTGGGTAG,0.14 kcal/mol
6,TCAATCACGTGAGGGG,0.28 kcal/mol
7,GGGATCACGTGCATGG,0.1 kcal/mol
8,GGGAACACGTGGATAG,0.06 kcal/mol
9,AAATGCACGTGGGGAA,-0.04 kcal/mol
10,AGTGGCACGTGTCATA,-0.09 kcal/mol
11,AAGCTCACGTGGATTG,0.27 kcal/mol
12,ATATGCACGTGTTTAT,0 kcal/mol
13,TAGCGCACGTGAGGTC,0.31 kcal/mol
14,GAAGTCACGTGGATTG,0.21 kcal/mol
15,AGCAGCACGTGAGGGG,0.16 kcal/mol
16,TACTGCACGTGGAAGG,0.04 kcal/mol
17,CGTCGCACGTGGGGCG,-0.25 kcal/mol
18,CTTTGCACGTGAGGGA,0 kcal/mol
19,CGCTTCACGTGGTTTG,0.26 kcal/mol
20,GGACGCACGTGTTAGT,-0.08 kcal/mol
21,TTGAACACGTGATGAT,0.15 kcal/mol
22,ATGTTCACGTGCTTAG,0.22 kcal/mol
23,GTCAACACGTGGGGCT,0.09 kcal/mol
24,TGTATCACGTGTGAGG,0.31 kcal/mol
25,ATTGTCACGTGACGGC,0.17 kcal/mol

row,Sequence,relative binding free energy
1,CAAGGCACGTGGTGTA,-0.2 kcal/mol
2,GATGGCACGTGGTTAA,-0.09 kcal/mol
3,ATTAGCACGTGTATAA,0.01 kcal/mol
4,TGTTGCACGTGGCCTA,0.02 kcal/mol
5,TGGCGCACGTGTGGTT,-0.11 kcal/mol
6,TGGGCCACGTGTGTGA,-0.08 kcal/mol
7,TGTCTCACGTGTGTTC,0.25 kcal/mol
8,ATGAGCACGTGGGCCG,-0.22 kcal/mol
9,AGTGTCACGTGGGACA,-0.07 kcal/mol
10,TAGTTCACGTGCTGAT,0.25 kcal/mol
11,CTGTTCACGTGGTTTA,0.27 kcal/mol
12,TTTTCCACGTGTGGCT,0.06 kcal/mol
13,GTATTCACGTGTTAGA,0.09 kcal/mol
14,GTGGTCACGTGAGTCT,0.38 kcal/mol
15,TAATACACGTGGGGCA,-0.07 kcal/mol
16,GTTCTCACGTGATTGG,0.35 kcal/mol
17,TATTTCACGTGAGTAC,0.3 kcal/mol
18,ACGGTCACGTGGTTAA,0.04 kcal/mol
19,AGGTGCACGTGGTTTC,-0.06 kcal/mol
20,TGGTCCACGTGGATAG,0.01 kcal/mol
21,TTGTTCACGTGTTCTC,0.24 kcal/mol
22,AGATTCACGTGGTTCG,0.18 kcal/mol
23,GCGGGCACGTGTAAGT,-0.06 kcal/mol
24,CATTTCACGTGTGGCG,0.22 kcal/mol
25,AAGAGCACGTGTGTTT,-0.02 kcal/mol

row,Sequence,relative binding free energy
1,ACTATCACGTGTGTTT,0.09 kcal/mol
2,ATTTTCACGTGTTCGT,0.2 kcal/mol
3,CATTGCACGTGTGTTG,-0.11 kcal/mol
4,AAAGGCACGTGGAAGT,-0.04 kcal/mol
5,AGTAGCACGTGGTTGT,-0.14 kcal/mol
6,TGGAGCACGTGGAAGG,-0.07 kcal/mol
7,TTTGACACGTGCGTGG,-0.07 kcal/mol
8,TGGTACACGTGTAGGT,0.11 kcal/mol
9,TCGTTCACGTGGAGCG,0.32 kcal/mol
10,ATTGGCACGTGTCGGA,-0.14 kcal/mol
11,TGGATCACGTGCTGCG,0.15 kcal/mol
12,TCGGTCACGTGTATGT,0.07 kcal/mol
13,GTTATCACGTGTGGGC,0.16 kcal/mol
14,TCAGGCACGTGATTGT,-0.12 kcal/mol
15,TAGTTCACGTGCCTTG,0.41 kcal/mol
16,TGGGACACGTGTAGTA,0.12 kcal/mol
17,TGGCGCACGTGGTAGG,-0.16 kcal/mol
18,TATGACACGTGGGGTC,-0.09 kcal/mol
19,GAGAGCACGTGAGGGA,0.31 kcal/mol
20,AGCGGCACGTGATGGT,0.1 kcal/mol
21,ACGTACACGTGATTGT,0.07 kcal/mol
22,AGATGCACGTGGGTCT,-0.28 kcal/mol
23,GGGGTCACGTGCGTTA,0.1 kcal/mol
24,CGGGTCACGTGGGCGT,-0.09 kcal/mol
25,TTGTACACGTGTGTTT,0.19 kcal/mol

row,Sequence,relative binding free energy
1,GGTGCCACGTGTTAGT,-0.23 kcal/mol
2,CGAGTCACGTGGTGAT,0.02 kcal/mol
3,AGTTTCACGTGATTCT,0.29 kcal/mol
4,GGCGGCACGTGGATGT,0.01 kcal/mol
5,ATGTTCACGTGGTGGA,0.24 kcal/mol
6,GTGGCCACGTGAGCGG,0.28 kcal/mol
7,TTGTACACGTGTCGTA,0.08 kcal/mol
8,AGGCGCACGTGAGGCA,0.15 kcal/mol
9,AATATCACGTGGTGGT,0 kcal/mol
10,TTTTGCACGTGAGGCA,0.15 kcal/mol
11,GGTAGCACGTGAGTTG,0.27 kcal/mol
12,GTTACCACGTGTGGGG,0.12 kcal/mol
13,AAATGCACGTGCGTGG,-0.04 kcal/mol
14,TGATGCACGTGGGTGA,-0.12 kcal/mol
15,TTATACACGTGTTAGA,-0.12 kcal/mol
16,AGTTGCACGTGGCATA,-0.14 kcal/mol
17,CAGTCCACGTGTGTGG,0.11 kcal/mol
18,CGTAGCACGTGAGGGC,0.12 kcal/mol
19,GAGCGCACGTGGATGT,-0.04 kcal/mol
20,TAAGGCACGTGAGATT,0.19 kcal/mol
21,GTAGGCACGTGTTTTC,0.09 kcal/mol
22,GTTTACACGTGAAGAT,0.26 kcal/mol
23,TTAGTCACGTGGTCGT,0.1 kcal/mol
24,TTCGTCACGTGATGGG,0.27 kcal/mol
25,ATGTCCACGTGTATTT,0.04 kcal/mol

row,Sequence,relative binding free energy
1,TGGCACACGTGTAAGT,0.08 kcal/mol
2,TTGGGCACGTGGTTGG,-0.09 kcal/mol
3,GAGTGCACGTGCAGGT,0.02 kcal/mol
4,AGTAACACGTGTCGTG,-0.01 kcal/mol
5,TTCGGCACGTGGGATT,-0.05 kcal/mol
6,GGAGACACGTGGGGTC,-0.07 kcal/mol
7,ACAGGCACGTGGGTGG,-0.27 kcal/mol
8,AGAGGCACGTGGTCCG,-0.06 kcal/mol
9,ACGTACACGTGGGGTT,-0.06 kcal/mol
10,TGAGGCACGTGGTCAA,-0.08 kcal/mol
11,TGCGTCACGTGGTGGC,-0.09 kcal/mol
12,TTAGCCACGTGATTTT,0.05 kcal/mol
13,TATTTCACGTGTTATT,0.21 kcal/mol
14,TTAATCACGTGGTTAT,0.16 kcal/mol
15,TCTATCACGTGGGAGG,0.04 kcal/mol
16,TCTGTCACGTGGTAAT,0.14 kcal/mol
17,GATGGCACGTGTAACG,0.12 kcal/mol
18,ATTTTCACGTGGTTGT,0.27 kcal/mol
19,AATGTCACGTGTAAAG,0.2 kcal/mol
20,GGGGGCACGTGAAAAT,0.18 kcal/mol
21,GTTGTCACGTGGCCGT,0.1 kcal/mol
